The whole screen tested about 320,000 compounds, of which about 200 (0.062%) were called active. The inconclusive results got no clear call from the source; some entries with a clear call stand among them for comparison. Calls follow the shape of the dose curve; as a rule, active = well fitted activation curve with a large enough effect; inconclusive = small, poorly fitted or top-dose-only effect; inactive = no such curve, though single readings can be large or run the other way. Potencies of inconclusive entries are left out as doubtful fits.
experiment: qHTS assay for re-activators of p53 using a Luc reporter; settings: H1299 p53-A138V BP100-luciferase reporter, luminescence, 24 h; series mostly up to 92.2 µM; also: nearly all actives have a fitted effect of over 45% in size
Outline: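 H1299 (p53-null), stable ts p53-A138V + BP100-Luc; 1000 cells/well, Opti-MEM/10% FBS; cpd 4 pt, 1:5; 24 h, 37 deg C, 5% CO2; detection reagent 10 min RT; luminescence.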
Potency is read from the fitted curve at half-maximal effect; tags tell the direction and shape of the fitted curve.

Structure (SMILES) | Potency
COc1ccc(N2C(=O)c3ccccc3NC23CCC(C)CC3)cc1 (centres undefined) | inconclusive [activator, partial curve, poor fit]
CCc1ccc2nc(NC(=O)C3CCN(c4ncnc5sc(C)c(C)c45)CC3)sc2c1 | inconclusive [activator, partial curve, poor fit]
CC(C)N(CCC(=O)c1ccc2ccccc2c1)Cc1ccccc1 | inactive
COc1cccc(NC(=O)Cc2nc(-c3ccccc3)sc2-c2ccc(C)cc2)c1 | inconclusive [activator, single point]
CC(=O)Nc1ccc(S(=O)(=O)N2CCN=C2SCc2cccc(C)c2)cc1 | inactive
O=C(N/N=C/c1ccc(OCc2ccc(F)cc2)cc1)c1ccccc1 | inconclusive [activator, single point]
CC(OC(=O)c1cccc([N+](=O)[O-])c1)C(=O)N1CCc2ccccc21 (centres undefined) | inconclusive [activator, partial curve, poor fit]
Cc1ccccc1C(=O)Nc1ccc2c(c1)CCCN2C(=O)c1cccs1 | inactive
O=Cc1ccc(N2Cc3ccccc3C2)cc1 | inconclusive [activator, partial curve, poor fit]
CC1CCN(c2c([N+](=O)[O-])nn(-c3ccc4c(c3)OCCO4)[n+]2[O-])CC1 | inconclusive [activator, full curve, poor fit]
CCc1nc(N=C(N)N)nc2ccccc12 | inconclusive [activator, single point]
COc1cc(C(=O)NC(=S)Nc2cccc3nc(C)ccc23)cc(OC)c1OC | inactive
O=C(Nc1nc2ccc([N+](=O)[O-])cc2s1)c1ccncc1 | inconclusive [activator, partial curve, poor fit]
Cc1cc(SC(C)C(=O)Nc2ncc(Cl)cc2Cl)nc2ccccc12 (centres undefined) | inactive
O=C(/C=C/c1ccc2c(c1)OCO2)c1ccc[nH]1 | inconclusive [activator, partial curve, poor fit]
C[C@@]12C(=O)Nc3ccc(Cl)cc3C(=O)N1[C@H]1c3cc(Cl)ccc3OC[C@@H]1[C@@H]2c1ccccc1 | inactive
O=C(Nc1ccccc1)N1CCC(c2ccccc2)C1 (centres undefined) | inconclusive [activator, partial curve, poor fit]
COc1cccc(/C=N/NC(=O)C(=O)Nc2ccccc2OC(F)(F)C(F)F)c1O | inconclusive [activator, single point]
COC(=O)Nc1nnc(-c2ccccc2Cl)s1 | inconclusive [activator, partial curve, poor fit]
CCOCCCn1c(=N)c(C(N)=S)cc2c(=O)n3cccc(C)c3nc21 | inactive
COC(=O)c1cc(-c2cccc(OC)c2)n[nH]1 | inconclusive [activator, single point]
CC1C(=O)CCN(C(C)(C)C)C1C (centres undefined) | inconclusive [activator, partial curve, poor fit]

Structure (SMILES) | Potency
CCC(C)c1ccc(NC(=S)NN2CCOCC2)cc1 (centres undefined) | inconclusive [activator, partial curve, poor fit]
O=C(O/N=C1\CCS(=O)(=O)c2sccc21)c1ccc(F)cc1 | inactive
CCOc1ccc2nc(NC(=O)C3CCN(C(=O)c4ccco4)CC3)sc2c1 | inconclusive [activator, partial curve, poor fit]
O=C(c1cc(-c2ccc(Cl)c(Cl)c2)on1)N1CCCCC1 | inconclusive [activator, partial curve, poor fit]
O=C(c1ccccc1)c1ccc2nc(-c3ccc(NC(=O)c4ccccc4Br)cc3)[nH]c2c1 | inactive
O=Cc1c(-c2ccccc2)cc2oc3ccccc3cc1-2 | inconclusive [activator, partial curve, poor fit]
COc1ccc(-n2nc3cc(C)c(NC(=O)C(C)C)cc3n2)cc1 | inconclusive [activator, full curve, poor fit]
O=C(CN1C(=O)/C(=C\c2cccc(Br)c2)Oc2ccccc21)NCCCN1CCOCC1 | inactive
c1ccc(COc2ccc(OCCn3cncn3)cc2)cc1 | inconclusive [activator, partial curve, poor fit]
S=c1[nH]nc(-c2ccc(Cl)cc2Cl)n1-c1ccc(Cl)cc1 | inconclusive [activator, partial curve, poor fit]
COc1ccccc1C(=O)NC(=S)/C=C1/N(C)c2ccccc2C1(C)C | inactive
CC1CCN(C(=O)c2ccc3c(c2)OCCO3)CC1 | inconclusive [activator, partial curve, poor fit]
C=CCn1c(C)c(C(C)=O)c(N2CCN(C(c3ccccc3)c3ccccc3)CC2)nc1=S | inactive
CC1(C)CC(NCCN2CCN(C3=CC(=C(C#N)C#N)CC(C)(C)C3)CC2)=CC(=C(C#N)C#N)C1 | inactive
Cn1cnnc1SCC(=O)Nc1ccc2ccccc2c1 | inconclusive [activator, single point]
CCn1c(SCC(=O)N/N=C/C=C/c2ccco2)nnc1-c1ccccc1 | inactive
O=C(C1CC(c2ccc(F)cc2)=NO1)N1CCCCC1 (centres undefined) | inconclusive [activator, full curve, poor fit]
Oc1cc(NCCc2cccnc2)cc2cccnc12 | inactive
Clc1ccc2oc(SCc3cccnc3)nc2c1 | inconclusive [activator, partial curve, poor fit]
Cc1ccccc1NC(=O)c1c(C)nn(-c2ccccc2)c1Cl | inconclusive [activator, single point]
Cc1ccc2[nH]cc(CCNC(=O)C3CCCO3)c2c1 (centres undefined) | inconclusive [activator, single point]
CCn1cnc2cc(NCc3ccc(OC)cc3)ccc21 | inconclusive [activator, partial curve, poor fit]

From PubChem BioAssay AID504706 (National Center for Advancing Translational Sciences (NCATS), 2011)
